T1: RBFOX1 RRM (Homo sapiens, UniProt Q9NWB1 109-208)
T1 sequence: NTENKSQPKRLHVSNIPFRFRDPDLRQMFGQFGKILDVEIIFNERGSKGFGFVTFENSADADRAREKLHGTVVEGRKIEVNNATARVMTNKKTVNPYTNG

B1: GAUUAAA (DNA:RNA)
RNA: GGGAGACCGGAAUUCAGAUUGUCCGAUUAAAUUAAAUCCCGUCGUAGCCACCA
DNA 1: CAATCTGAATTCCGGTCTCCC
DNA 2: TGGTGGCTACGACGGGATT
B2: UUGGCGG (DNA:RNA)
RNA: GGGAGACCGGAAUUCAGAUUGUCCUUGGCGGUUAAAUCCCGUCGUAGCCACCA
DNA 1: CAATCTGAATTCCGGTCTCCC
DNA 2: TGGTGGCTACGACGGGATT
B3: ACAUGAA (DNA:RNA)
RNA: B1 RNA with G25A, A26C, U27A, A29G
DNA 1: CAATCTGAATTCCGGTCTCCC
DNA 2: TGGTGGCTACGACGGGATT
B4: CGGAUGG (DNA:RNA)
RNA: B2 RNA with U25C, U26G, G28A, C29U
DNA 1: CAATCTGAATTCCGGTCTCCC
DNA 2: TGGTGGCTACGACGGGATT
B5: CUAACGG (DNA:RNA)
RNA: B2 RNA with U25C, G27A, G28A
DNA 1: CAATCTGAATTCCGGTCTCCC
DNA 2: TGGTGGCTACGACGGGATT
B6: GACCAAG (DNA:RNA)
RNA: B1 RNA with U27C, U28C, A31G
DNA 1: CAATCTGAATTCCGGTCTCCC
DNA 2: TGGTGGCTACGACGGGATT
B7: AUGUAUA (DNA:RNA)
RNA: B1 RNA with G25A, A26U, U27G, A30U
DNA 1: CAATCTGAATTCCGGTCTCCC
DNA 2: TGGTGGCTACGACGGGATT
B8: AUUCCUG (DNA:RNA)
RNA: B2 RNA with U25A, G27U, G28C, G30U
DNA 1: CAATCTGAATTCCGGTCTCCC
DNA 2: TGGTGGCTACGACGGGATT
B9: CCCUUCU (DNA:RNA)
RNA: B1 RNA with G25C, A26C, U27C, A29U, A30C, A31U
DNA 1: CAATCTGAATTCCGGTCTCCC
DNA 2: TGGTGGCTACGACGGGATT
B10: CAUUCAU (DNA:RNA)
RNA: B1 RNA with G25C, A29C, A31U
DNA 1: CAATCTGAATTCCGGTCTCCC
DNA 2: TGGTGGCTACGACGGGATT
B11: UUGUACA (DNA:RNA)
RNA: B1 RNA with G25U, A26U, U27G, A30C
DNA 1: CAATCTGAATTCCGGTCTCCC
DNA 2: TGGTGGCTACGACGGGATT
B12: CCAGAGA (DNA:RNA)
RNA: B1 RNA with G25C, A26C, U27A, U28G, A30G
DNA 1: CAATCTGAATTCCGGTCTCCC
DNA 2: TGGTGGCTACGACGGGATT
B13: GCGAUGC (DNA:RNA)
RNA: B2 RNA with U25G, U26C, G28A, C29U, G31C
DNA 1: CAATCTGAATTCCGGTCTCCC
DNA 2: TGGTGGCTACGACGGGATT
B14: GUGGUCA (DNA:RNA)
RNA: B2 RNA with U25G, C29U, G30C, G31A
DNA 1: CAATCTGAATTCCGGTCTCCC
DNA 2: TGGTGGCTACGACGGGATT
B15: UAGAGCC (DNA:RNA)
RNA: B2 RNA with U26A, G28A, C29G, G30C, G31C
DNA 1: CAATCTGAATTCCGGTCTCCC
DNA 2: TGGTGGCTACGACGGGATT
B16: GAUGGAG (DNA:RNA)
RNA: B1 RNA with U28G, A29G, A31G
DNA 1: CAATCTGAATTCCGGTCTCCC
DNA 2: TGGTGGCTACGACGGGATT
B17: UAGACGC (DNA:RNA)
RNA: B2 RNA with U26A, G28A, G31C
DNA 1: CAATCTGAATTCCGGTCTCCC
DNA 2: TGGTGGCTACGACGGGATT
B18: AUGUACC (DNA:RNA)
RNA: B1 RNA with G25A, A26U, U27G, A30C, A31C
DNA 1: CAATCTGAATTCCGGTCTCCC
DNA 2: TGGTGGCTACGACGGGATT
B19: GCAGGUC (DNA:RNA)
RNA: B1 RNA with A26C, U27A, U28G, A29G, A30U, A31C
DNA 1: CAATCTGAATTCCGGTCTCCC
DNA 2: TGGTGGCTACGACGGGATT
B20: UUUAGUG (DNA:RNA)
RNA: B2 RNA with G27U, G28A, C29G, G30U
DNA 1: CAATCTGAATTCCGGTCTCCC
DNA 2: TGGTGGCTACGACGGGATT

Where a chain is given by its changes, count along the chain named. The list shows a part of the results.

The target in this experiment is T1, RBFOX1 RRM. Briefly: EMSA; HiTS-Eq, 1 nM pool, 10 min; buffer printed only for the single-RNA assays: 10 mM Tris pH 7.5, 150 mM NaCl, 3.4 mM EDTA, 0.001% NP-40, 30 C. The settings on record: tags: His6 N-terminal (pET28a); label: 5' 32P. In a few lines:
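Purified RbFox RRM (wild type or mutant) was equilibrated for 10 min in 50 µL with 1 nM of a 5′-radiolabelled pool of RNA with 7 randomized nucleotides, its flanks annealed to DNA oligonucleotides, across increasing protein concentrations. Free RNA was separated by 8% native PAGE, excised, reverse-transcribed, PCR-barcoded and sequenced on an Illumina HiSeq 2500. Relative association constants came from read-count changes of each variant against the control reaction, normalised to the cognate motif.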
Regarding B1, the binding signal was 0.00427 KA relative to UGCAUGU. With B2 the figure was 0.0247 KA relative to UGCAUGU; with B3, 0.00359 KA relative to UGCAUGU; with B4, 0.0169 KA relative to UGCAUGU. With B5 the figure was 0.00643 KA relative to UGCAUGU; with B6, 0.00444 KA relative to UGCAUGU; with B7, 0.00344 KA relative to UGCAUGU. With B8 the figure was 0.0057 KA relative to UGCAUGU; with B9, 0.01 KA relative to UGCAUGU; with B10, 0.000796 KA relative to UGCAUGU. As to B11, the binding signal was 0.0117 KA relative to UGCAUGU. With B12 the figure was 0.0103 KA relative to UGCAUGU; with B13, 0.0167 KA relative to UGCAUGU. In the case of B14, the binding signal was 0.0194 KA relative to UGCAUGU. The result for B15 reads 0.00427 KA relative to UGCAUGU; that for B16, 0.00961 KA relative to UGCAUGU. Take B17: the binding signal was 0.00461 KA relative to UGCAUGU. The result for B18 reads 0.00598 KA relative to UGCAUGU. With B19 the figure was 0.0095 KA relative to UGCAUGU; with B20, 0.0205 KA relative to UGCAUGU.
